Test results as given in the supplement of paper PMC3334620.
Over roughly 33,000 sequences, “E-score (-0.5 to 0.5)” has its median near -0.035; the highest 2% begin near 0.34. Some of the results follow.

These sequences were tested against T1, Mot3 (UniProt P54785) (assay: PBM E-score (8-mer binding enrichment) (E-score (-0.5 to 0.5)); higher = stronger / more preferred TF binding; most listed sequences are background and not binding sites). Settings: protein concentration: 200 nM; construct: GST-full length.
T1 sequence: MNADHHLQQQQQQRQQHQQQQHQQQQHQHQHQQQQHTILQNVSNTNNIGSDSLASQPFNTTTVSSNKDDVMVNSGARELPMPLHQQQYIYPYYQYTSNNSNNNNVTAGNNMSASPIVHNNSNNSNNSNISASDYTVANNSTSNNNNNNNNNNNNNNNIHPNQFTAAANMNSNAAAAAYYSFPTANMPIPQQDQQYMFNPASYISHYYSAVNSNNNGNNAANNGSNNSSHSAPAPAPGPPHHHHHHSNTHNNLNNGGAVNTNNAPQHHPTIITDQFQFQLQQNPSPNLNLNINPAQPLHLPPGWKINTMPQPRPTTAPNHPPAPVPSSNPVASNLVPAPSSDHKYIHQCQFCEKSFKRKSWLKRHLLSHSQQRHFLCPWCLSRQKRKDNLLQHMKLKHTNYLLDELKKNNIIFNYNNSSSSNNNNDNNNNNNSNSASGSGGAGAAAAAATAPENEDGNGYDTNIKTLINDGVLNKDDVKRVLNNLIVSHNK
Summary of the method: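 Detection of bound protein used fluorescent anti-GST, with scans normalised by masliner. The proteins were GST-tagged yeast transcription factors applied at about 100-200 nM to universal all-10-mer Agilent arrays made double-stranded by primer extension. Each ungapped eight-base word, pooled with its reverse complement, was scored with an E-score from the Universal PBM Analysis Suite.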

| Sequence | PBM E-score |
| --- | --- |
| ACTGCCGC | -0.261 |
| AGTAAAAC | 0.179 |
| CGTGCATC | -0.181 |
| CCCGCGAA | -0.162 |
| ATCGTAAG | -0.0233 |
| AGATAACA | 0.264 |
| GTGCTCTA | 0.0193 |
| CATAGAAC | -0.0217 |
| AACGTTTG | -0.00016 |
| CAGCTAGA | -0.154 |
| CCCATGAA | -0.0112 |
| TCAGGCAA | 0.483 |
| ATGCAGAC | -0.0602 |
| ACTTAGAT | 0.0482 |
| GGACATAC | 0.0426 |
| AACAAATG | 0.149 |
| CCTTTTAC | 0.171 |
| CGGAGCTC | -0.228 |
| CTTCCAAA | 0.0856 |
| ACACTGGA | -0.00662 |
| GCTGTATA | 0.145 |
| AATCAGCG | -0.133 |
| AACGCCGT | -0.0672 |
| AAATACCT | 0.0955 |
| CCTATTGC | 0.0511 |

| Sequence | PBM E-score |
| --- | --- |
| CGACCTGA | 0.0446 |
| GATCCCAA | -0.238 |
| GCATGGGA | 0.0073 |
| AAATTCTC | -0.197 |
| AAGGAGGA | -0.0237 |
| GCCACTGA | -0.101 |
| CCCTTGAG | -0.225 |
| ATAACTTC | 0.0157 |
| GAAGGTTA | 0.00929 |
| AACGTCTA | -0.0565 |
| GGAAAATA | 0.166 |
| GAGCCTGA | 0.26 |
| CCATAACG | -0.1 |
| ACTAACTG | -0.0138 |
| GACATACA | 0.218 |
| ACCCTCGG | -0.175 |
| CATACTGA | -0.00538 |
| CATGAGGG | -0.0409 |
| GCCAGAGA | -0.214 |
| CATTTGTC | 0.174 |
| GTAGAGGA | -0.099 |
| ACCTGCTA | 0.0839 |
| AAGGTTTC | 0.0811 |
| GCCTGGAC | 0.0141 |
| AGTTGAGG | -0.118 |

| Sequence | PBM E-score |
| --- | --- |
| ACTTATCC | -0.018 |
| ATTTCACG | 0.0073 |
| AGACTAAG | -0.0385 |
| ATTGAATC | -0.0365 |
| AGAGAAGG | -0.152 |
| CGGAACCC | -0.0527 |
| GAGCTTGA | -0.127 |
| AGACAAGG | 0.00418 |
| GCCTTTCA | 0.159 |
| GGAGTCAC | -0.27 |
| GTCCGCAA | -0.234 |
| ATGGCAGG | -0.0274 |
| CGCAGCTC | -0.164 |
| ACTATGAA | 0.0261 |
| ATGGGCGA | -0.254 |
| ATGGCGGG | -0.294 |
| CGCTAGAA | -0.156 |
| CGAGAGGC | -0.106 |
| ACCTACCA | 0.12 |
| AGGTCGCG | -0.287 |
| GCGTCTAA | -0.0189 |
| AAATACTC | -0.103 |
| GCGCTTAA | -0.00701 |
| CGACTTCC | -0.0315 |
| TCGTGGCA | 0.142 |

| Sequence | PBM E-score |
| --- | --- |
| CGGCAGCA | 0.0161 |
| AGATTCTC | -0.0953 |
| ATCACGAC | -0.113 |
| GCACTTGA | 0.051 |
| CGTATCAA | -0.144 |
| AACAATAG | 0.12 |
| CTGATCAG | 0.00245 |
| CACATGTC | 0.196 |
| ACATAAGA | 0.284 |
| ATTGTCGA | -0.0491 |
| AATGCAGG | 0.262 |
| TGATTCCA | 0.0225 |
| ACACCTTA | 0.157 |
| ATGCGCTC | -0.0382 |
| AACAGACA | 0.144 |
| AGATGCAA | -0.0384 |
| AACAGCAG | 0.0558 |
| GACAGACC | -0.169 |
| CAATTCCG | -0.132 |
| CACTTATG | -0.00281 |
| GACCCAGA | -0.155 |
| CCCGAAGC | -0.161 |
| TACTGCCA | -0.0386 |
| AGAGTCCT | -0.17 |
| GATCCTGC | 0.0913 |

| Sequence | PBM E-score |
| --- | --- |
| ACCAGAGT | -0.0443 |
| CGCGGGAG | -0.344 |
| TCTTCTCA | -0.064 |
| ATTAAAAC | 0.197 |
| GCGCCAAC | -0.117 |
| GTGGCACA | -0.137 |
| AGGTTGGC | -0.22 |
| ATGCGCCG | -0.131 |
| CAGGAGCC | 0.0966 |
| AGTGCGCA | -0.234 |
| ACTACGAT | -0.0182 |
| CTGGTTCC | 0.264 |
| GCCGGCGC | -0.166 |
| CTTTTTTC | 0.154 |
| CCGATGAA | -0.0796 |
| TAGCCCGA | -0.203 |
| AGTGTACC | -0.0469 |
| GGGCGGCA | -0.262 |
| CTGAATCC | -0.0061 |
| ACTTAGGG | -0.0371 |
| AAAGATTG | -0.0495 |
| CGGTTTGC | 0.00094 |
| CATGGTGC | -0.0103 |
| GTCATTTA | 0.0594 |
| AGCCTCAG | -0.186 |

| Sequence | PBM E-score |
| --- | --- |
| AGGAATCG | -0.0247 |
| CCGAGCGG | -0.262 |
| ACCGCGAT | -0.134 |
| AGGCGATC | -0.113 |
| AAGATCCC | -0.183 |
| ATTACACA | 0.438 |
| GAGTTCAA | 0.163 |
| CCACATGC | -0.0192 |
| GGATGAGA | -0.207 |
| CGTGGTGC | -0.0426 |
| ATTGGTGA | -0.138 |
| CATCGTCC | -0.0649 |
| GCGGCCGA | -0.27 |
| CAGGAGCA | -0.167 |
| AGCGACTG | 0.0488 |
| TAAATAGA | 0.0128 |
| ACACAGCA | 0.291 |
| AAGACTGC | -0.243 |
| AAGTTTAG | 0.0474 |
| CACCGCGC | -0.188 |
| AGGGTTTG | -0.0138 |
| CGGTTTGA | -0.0327 |
| ATTCTGAA | -0.0991 |
| ATCACACG | 0.283 |
| CGCGTGCC | 0.433 |

| Sequence | PBM E-score |
| --- | --- |
| CAGAAGAC | -0.0819 |
| AGGTCCAG | -0.084 |
| TAGCCCCA | -0.196 |
| ACCATATG | 0.0136 |
| CTGCTCGA | -0.152 |
| AAACTCGA | -0.105 |
| ACACATGG | 0.144 |
| CCCCCTCC | -0.101 |
| GTGAGGCA | 0.353 |
| CTAAGGAA | 0.366 |
| GGAGAAGA | -0.165 |
| TCCCCTCA | 0.0167 |
| AAGTCCCT | -0.139 |
| GCGTTTAC | 0.186 |
| CGCCGTAA | -0.0859 |
| CTTTGCTA | 0.163 |
| ACCATGTA | 0.404 |
| ATTTGGTG | -0.0257 |
| ATTCCGTA | 0.0207 |
| ATCACCGG | 0.00681 |
| CTCGCCAA | -0.0783 |
| CCGCATAG | 0.00725 |
